Values joined by “and” are separate entries in the source; they are usually repeats but may differ in a detail not shown here. Equal values may be shown once. In all, about 94,000 compounds went through this assay and about 6,200 (6.6%) were called active. Inconclusive means that the source gave no clear call. Such entries were picked first, then a sample of the others. The call rests on the fitted dose curve; in most records, active means well fitted inhibition curve with a large enough effect; inconclusive means small, poorly fitted or top-dose-only effect; inactive means flat fitted curve, though single readings scatter. A potency beside an inconclusive call is a rough fit, not a confirmed value.
experiment: Cytotoxic Profiling in HEK 293 Cell Line of Diverse Libraries Using Quantitative High-Throughput Screening; conditions: HEK 293 viability, ATP luminescence (CellTiter-Glo), 48-72 h; activity change, negative = cytotoxicity: at 115 µM (top of the series) unless noted; series mostly up to 115 µM; further: nearly all actives have a fitted effect of over 60% in size
How it was run: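 Pintool-delivered compounds were incubated with HEK 293 cells (250 cells/well) at 37 degree Celsius for 48 or 72 hr. ATP-dependent luminescence (CellTiter-Glo) then reported remaining viable cells.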
On the % scale 0 is the no-effect control and ±100 the full control effect; potency means the concentration at half of the fitted maximal effect; tags describe the fitted curve by direction and shape.

SMILES | activity change, negative = cytotoxicity | Potency | outcome
COc1ccc(-c2ccc(C(=O)N3CCN(C(=O)c4ccccc4C)CC3)cc2)nn1 | inactive: -4.58% | – | –
CC(C)Oc1ccc(CN2CCC(CO)(CN3CCCC3)CC2)cc1Cl | – | active: 25.1 µM | –
O=C([C@H]1CCC[C@@H](O)C1)N1CCN(Cc2ccc(C(F)(F)F)cc2)CC1 | – | inconclusive: 12.6 µM [inhibitor, full curve, poor fit] | –
COc1ccccc1-c1cccc(C(=O)N2CCN(C(=O)c3ccccc3)CC2)c1 | – | inconclusive: 50.1 µM [inhibitor, partial curve, poor fit] | –
Cc1ccsc1C(=O)N1CCC2(CCCCO2)CC1 | – | inconclusive: 50.1 µM [inhibitor, partial curve, poor fit] | –
CS(=O)(=O)N1CCC(C2CCN(C(=O)c3cccc(C#N)c3)C2)CC1 (stereo unspecified) | inactive: -14% | – | –
Cc1cc(F)ccc1NC(=O)CN1C(=O)NC2(CCCCC2)C1=O | inactive: 13.6% | – | –
CCc1noc(-c2cn(C3CCN(C(=O)c4ccc(C)s4)C3)nn2)n1 (stereo unspecified) | – | inconclusive: 39.8 µM [inhibitor, full curve, poor fit] | –
NC(=O)[C@@H]1C[C@H](Oc2cccnc2)CN1S(=O)(=O)Cc1ccccc1F | inactive: 1.56% | – | –
Cc1cc(F)ccc1NC(=O)CCC1CCCN(C(=O)CC2=CCCCC2)C1 (stereo unspecified) | – | inconclusive: 89.1 µM [inhibitor, partial curve, poor fit] | –
Fc1ccc(CN2CCC(Cc3nc(-c4cccnc4)n[nH]3)C2)c(F)c1 (stereo unspecified) | – | inconclusive: 89.1 µM [inhibitor, single point] | –
CCCNC(=O)C(NC(=O)CC(C)C)C1CCN(C(=O)c2ccc(Cl)cc2)CC1 (stereo unspecified) | – | – | inactive
CNC(=O)[C@@H]1CN(C(=O)C2CC=CCC2)C[C@H]1c1nc(COC)no1 (stereo partly specified) | – | inconclusive: 50.1 µM [inhibitor, partial curve, poor fit] | –
COc1ccc(-c2ccccc2C(=O)N2CCC(NC(=O)C(C)(C)C)CC2)nn1 | – | – | inactive
CN(C)C(=O)C1CN(C(=O)NCc2ccccc2)CC12CCOCC2 (stereo unspecified) | inactive: -9.86% | – | –
O=C(NCc1ccccn1)c1nc2sccn2c1-c1ccccc1 | inactive: -23.3% [at 172 µM] | – | –
Cc1ccccc1C(=O)N(C)Cc1cccc(C(F)(F)F)c1 | – | inconclusive: 79.4 µM [inhibitor, partial curve, poor fit] | –
COc1ccc(CC(=O)N(C)Cc2cccc(C(F)(F)F)c2)cc1 | – | inconclusive: 100 µM [inhibitor, partial curve, poor fit] | –
CN1CCN(C(=O)c2ccc3nc(-c4ccccn4)oc3c2)CC1 | – | – | inactive
COc1cccc(CN2CC3(C2)C(=O)N(Cc2ccccc2Cl)C(=O)[C@@H]2C[C@@H](O)CN23)c1 | – | inconclusive: 89.1 µM [inhibitor, single point] | –
CCCCc1cc(C[C@@H]2C[C@H](NC(=O)c3cccc(F)c3)C2(C)C)no1 | – | active: 63.1 µM | –

SMILES | activity change, negative = cytotoxicity | Potency | outcome
COc1cccc(-c2nc(-c3c(C)noc3C)cc3c2cc(C)n3CCN(C)C)c1OC | – | inconclusive: 100 µM [inhibitor, partial curve, poor fit] | –
COc1ccccc1NC(=O)c1cc2c(n1C)CCN(Cc1cccc(C)c1)C2 | – | inconclusive: 79.4 µM [inhibitor, partial curve, poor fit] | –
O=C(Nc1ccccc1Cl)C1CCCN(Cc2cccc(-c3cccs3)c2)C1 (stereo unspecified) | – | inconclusive: 44.7 µM [inhibitor, partial curve, poor fit] and inconclusive: 50.1 µM [inhibitor, partial curve, poor fit] | –
CCc1ccc(CN2CCC3(CC2)Cc2ccccc2CNC3=O)cc1 | – | inconclusive: 56.2 µM [inhibitor, partial curve, poor fit] | –
COc1cccc(CC(=O)N2CCc3c(c(-c4nncn4C(C)C)nn3C)C2)c1 | – | – | inactive
O=C(c1cccnc1)N1CC[C@H](c2nc3ccccc3s2)C1 | – | inconclusive: 100 µM [inhibitor, partial curve, poor fit] | –
Cc1nn(-c2ccccc2)c2c1C(C1CC1)N(C1CCCN([S+](=O)([O-])c3ccccc3)C1)C2=O (stereo unspecified) | inactive: -1.61% | – | –
COc1ccc(-c2cc(N3CCCC(NC(=O)c4ccc(F)cc4F)C3)n[nH]2)cc1 (stereo unspecified) | – | inconclusive: 50.1 µM [inhibitor, partial curve, poor fit] | –
COc1ccc(F)cc1-c1ccc(CN2CCC(NC(=O)c3ccc(F)cc3)C2)cc1 (stereo unspecified) | – | inconclusive: 31.6 µM [inhibitor, full curve, poor fit] | –
O=C(NCC1CC1)C1CCN(C(=O)c2ccc(-c3cccs3)cc2)CC1 | – | inconclusive: 89.1 µM [inhibitor, single point] | –
O=C(Cc1ccc(F)cc1)N1CCC2(CC1)NC(=O)N(c1ccccc1Cl)N2 | – | inconclusive: 39.8 µM [inhibitor, full curve, poor fit] | –
CCCC1=Nc2cc(C(=O)NCCCN3CCCCC3CC)ccc2Sc2ccc(C)cc21 (stereo unspecified) | – | inconclusive: 20 µM [inhibitor, full curve, poor fit] | –
CNC(=O)N1CCC(C2CCN(C(=O)CCc3cccc(OC)c3)C2)CC1 (stereo unspecified) | – | inconclusive: 89.1 µM [inhibitor, single point] | –
CC(C)CNC(=O)c1ccc2nnc(-c3ccoc3)n2c1 | inactive: -4.48% [at 172 µM] | – | –
CCn1ncc(CN2CCCCCCN(C)C(=O)[C@@H]3CCC[C@@H]32)c1C | – | inconclusive: 100 µM [inhibitor, single point] | –
CCOc1ccc(C2NC(=O)N(Cc3noc(C4CCCCC4)n3)C3=C2C(=O)OC3)cc1 (stereo unspecified) | – | inconclusive: 31.6 µM [inhibitor, partial curve] | –
CC(=O)NC1CCCc2c1[nH]c1ccc(F)cc21 (stereo unspecified) | – | inconclusive: 89.1 µM [inhibitor, single point] | –
Cc1cc(F)ccc1OC1CN(CC2CCCCC2)C1 | – | inconclusive: 39.8 µM [inhibitor, partial curve, poor fit] | –
CNC(=O)c1cc(C2CC2)nc2onc(C3CCN(C(=O)Cc4ccc(F)cc4)C3)c12 (stereo unspecified) | inactive: -20.5% | – | –
O=C(CN1CCCc2nc(-c3ccncc3)ncc2C1=O)NCc1cc(F)ccc1F | – | inconclusive: 50.1 µM [inhibitor, partial curve, poor fit] | –
O=C1NCCCCCCN(C(=O)Cc2ccccc2)[C@H]2C[C@H](c3nc(Cc4ccccc4)no3)C[C@@H]12 | – | inconclusive: 89.1 µM [inhibitor, partial curve, poor fit] | –

SMILES | activity change, negative = cytotoxicity | Potency | outcome
COc1ccc(OCC(O)CN2CCC(=O)N(C3CC3)Cc3ccccc32)cc1 (stereo unspecified) | – | inconclusive: 39.8 µM [inhibitor, partial curve] | –
COc1ccc(-c2ccnc(N[C@H]3CO[C@H]4[C@@H]3OC[C@H]4OC(=O)Nc3cccc(C(F)(F)F)c3)n2)cc1 | – | inconclusive: 44.7 µM [inhibitor, partial curve, poor fit] | –
CN(C)CC1(O)CCN(C(=O)Cn2cc(C(=O)C3CC3)c3ccccc32)C1 (stereo unspecified) | inactive: -3.5% | – | –
COCCNC(=O)C1(C)CCCc2cnc(Nc3ccccc3)nc21 (stereo unspecified) | – | inconclusive: 89.1 µM [inhibitor, partial curve, poor fit] | –
O=C(N[C@@H]1CCC[C@@H]1C(=O)NC1CCCCCC1)c1ccncc1 | – | – | inactive
Cc1ccc(Cl)c(OCC(=O)c2ccc3c(c2)N(CCCC(=O)NC2CC2)C(=O)CO3)c1 | – | inconclusive: 44.7 µM [inhibitor, partial curve, poor fit] | –
CCc1[nH]c2ccc(CNC(=O)[C@H]3[C@@H]4C=C[C@@]5(CN(C)C(=O)[C@@H]35)O4)cc2c1C | inactive: -2.27% | – | –
CN1CCCCCC(O)c2cc(C(=O)N3CCN(C4CCCCC4)CC3)ccc21 (stereo unspecified) | – | inconclusive: 50.1 µM [inhibitor, partial curve, poor fit] | –
Cc1ccc([S+](=O)([O-])N2CCCC(c3nn(-c4ccccn4)c(=O)[nH]3)C2)cc1 (stereo unspecified) | inactive: -16.1% | – | –
O=C(Nc1ccccc1)N1CCN(c2nccc(Nc3ccccc3F)n2)CC1 | – | inconclusive: 50.1 µM [inhibitor, partial curve, poor fit] | –
O=C(c1cccc2c1CCN2C(=O)Nc1ccccc1)N1CCN(c2ccccc2)CC1 | – | inconclusive: 89.1 µM [inhibitor, single point] | –
COc1ccc(C(=O)N2CCN3C(=O)c4cc(-c5ccc(Cl)cc5)ccc4NC(=O)[C@@H]3C2)cc1 | – | active: 31.6 µM | –
O=C(CCC1CCN(S(=O)(=O)c2ccccc2)CC1)N1CCCCC1 | – | inconclusive: 10 µM [inhibitor, full curve, poor fit] | –
COc1ccc(Cn2c(=O)c(C(=O)N3CCN(C(=O)c4ccc(C(F)(F)F)cc4)CC3)nc3cccnc32)cc1 | – | inconclusive: 89.1 µM [inhibitor, single point] | –
CN1C[C@@H]2[C@H](c3ccccc31)[C@@H](CO)[C@@H](c1ccccc1)N2C(=O)c1ccno1 | – | inconclusive: 50.1 µM [inhibitor, partial curve, poor fit] | –
COc1cc(CN2CCC3(CC2)CN(c2ccncn2)CC3CO)ccc1F (stereo unspecified) | – | inconclusive: 79.4 µM [inhibitor, partial curve] | –
COCC1CN(Cc2cn(C)c3ccc(OC)cc23)CC12CCNCC2 (stereo unspecified) | – | inconclusive: 79.4 µM [inhibitor, partial curve, poor fit] | –
COc1ccc(-n2nc(C3CCCN(C(=O)Nc4ccccc4)C3)[nH]c2=O)cc1 (stereo unspecified) | – | inconclusive: 89.1 µM [inhibitor, single point] | –
CC1=NS(=O)(=O)N(Cc2ccccc2)C=C1C(=O)OCc1noc(-c2cccc(Cl)c2)n1 | – | inconclusive: 50.1 µM [inhibitor, partial curve, poor fit] | –
